The source gives no read counts; variants with many changes may rest on few reads.
B1: CPEB3 Ribozyme (parent)
chain: UAACAGGGGGCCACAGCAGAAGCGUUCACGUCGCAGCCCCUGUCAGAUUCUGGUGAAUCUGCGAAUUCUGCUGUAUAUCUC

Variants of: B1
Assay: self-cleavage, relative activity (ratio to wild type); higher = more cleavage; in vitro, sequencing
Procedure, shortened: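 Barcoded CPEB3 ribozyme mutants, produced by rounds of error-prone PCR, self-cleaved while being transcribed with T7 RNA polymerase for 5 hours at 37°C and during a subsequent 15 min DNase I step before EDTA was added. Sequencing of template-switched cDNA on Illumina gave cleaved and total reads, and DNA sequencing assigned barcodes to variants. Each variant's relative activity is its cleaved/total read fraction divided by the unmutated ribozyme's fraction, averaged across three batches. A variant needed a minimum of 5 reads.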

| Variant | self-cleavage |
| --- | --- |
| UAACAGGGGGGCACAGCGGAAGCGUCCACGUCGCAGCCCCUGCCAGAUUCUGGUGAACCUGCGAAUUCUGCUGUAUAUCUC [C11G A18G U26C U43C U58C] | 0.18 |
| UAACAGGGGGGCACUGCAGAAGCGUUCACGUCGCAGCCUCUGACAGAUUCUGGUGAAUCUGCGAAUUCUGCUGUAUAUCUC [C11G A15U C39U U43A] | 0.45 |
| UAACAGGGGGACACAGCAGAAGCGUUCACGUCGCAGCCCCUGUCAGAUUCAGGUGGAUCUGCGAAUUCUGCUGUGUAUCUC [C11A U51A A56G A75G] | 0.08 |
| UAACAGGGGGGCACAGCUGAAGCGCUCACGUCGCAGCCCCUGUCAGAUUCUGGUGGAUCUGCGAAUUCUGCCGCAUAUCUC [C11G A18U U25C A56G U72C U74C] | 0.05 |
| UAACAGGGGGGCACAGCGGAAGCGUUCAUGUCGCAGCCCCUGUCAGAUUCUGGUGAAUCUGCGAAGUCUGCUGUAUAUCUC [C11G A18G C29U U66G] | 0.07 |
| UAACAGGGGGGCACAGCAGUAGCGUUCGCGUCGCAGCCCCCGACAGAUUCUGGCGAAUCUGCGAAUUCUGCUGUAUAUCUC [C11G A20U A28G U41C U43A U54C] | 0.05 |
| UAACAGGGGGGCACAGCAGAGGCGUUCACGUCGCAGCCCCAGUCAGAUUCUGGUGAAUCUGUGAAUUCUGCUGUAUAUCUC [C11G A21G U41A C62U] | 0.28 |
| UAACAGGGGGGCACAGCUGAAGCGAUCACGUCGCAGCCCCUGUCAGAUUCUGGUGAAUCUGCGAAUUCCGCUGAAUAUCUC [C11G A18U U25A U69C U74A] | 0.05 |
| UAACAGGGGGGCACAGCAGAAGCGUUCGCGUCGCAGCCCCUGUCAGAUUCCGGCGAAUCUGCGAAUUCUGCUGUAUAUCUC [C11G A28G U51C U54C] | 0.11 |
| UAACAGGGGGGCACAGCAGUAGCGUUCACGUCGCAGCCCCUGCCAGAUUCUGGUGAAUCUGCGAAUUCUGCUGUAUAUCUU [C11G A20U U43C C81U] | 0.09 |
| UAACAGGGGGGCACAGCAGAAGCGUUCGCGUCGCAGCCCCUGUCAGAUUCUGGCGAAUCUGCGAAUUCUGCCGUAUAUCUC [C11G A28G U54C U72C] | 0.09 |
| UAACAGGGGGGCACAGCGGAAGCGUUCACGUCGCAGCCCCUGUCAGAUUCUCGUGAAUCUGCGAAUUCUGCAGUACAUCUC [C11G A18G G52C U72A U76C] | 0.13 |
| UAACAGGGGGACACAGCAGAAGCGUUCACGUCGCAGCCCCUGUCAGAUUCGGGUGGAUCUGCGAAUUCUGCUGUAUAUCUC [C11A U51G A56G] | 0.28 |
| UAACAGGGGGGCACAGCAGAAGCGUUCACGUCGCUGCCCCUGUCAGAUUCUGGUGAAUCUGCAAGUUCUGCUGUAUAUCUC [C11G A35U G63A A65G] | 0.04 |
| UAACAGGGGGGCACAGCGGAAGCGAACACGACGCAGCACCUGUCCGAUUCUGGUGAAUCUGCGAAUUCUGCUGUAUAUCUC [C11G A18G U25A U26A U31A C38A A45C] | 0.02 |
| UAACAGGGGGGCACAGCAGGAGCGUUCACGACUCAGCCCCUGUCAGAUUCUGGUGAAUCUGCGAAUUCUGCUGUAUAUCUC [C11G A20G U31A G33U] | 0.23 |
| UAACAGGGGGGCACAGCAGAAGCGUUCACGUCGCUGCCCCUGUCAGAUUCUGGUGAAUCUGCGGAUUCUGCUGUAUAUCUC [C11G A35U A64G] | 0.11 |

| Variant | self-cleavage |
| --- | --- |
| UAACAGGGGGGCACAGCAGAAGCGUUCACGUCGCGGCCCCUGUCAGAUUCUGGUGGAUCUGCGAAUUCUGCUGCAUAUCUC [C11G A35G A56G U74C] | 0.47 |
| UAACAGGGGGGCACAGCAGAGGCGUUCACGUGGCAGCCCCUGUCAGACUCUGGUGAAUCUGCGAAUUCUGCUGUAUAUCUC [C11G A21G C32G U48C] | 0.07 |
| UAACAGGGGGGCACCGCAGAGGCGUUCACGUCGCAGCCCCUGUCAGAUUCUGGUGAAUCUGCGAAUUCUGCUGUAUAUCUC [C11G A15C A21G] | 0.39 |
| UAACAGGGGGGCACUGCAGGAGCGUUCGCGUCGCAGCCCCUGUCAGAUUCUGAUGUAUCUGCGAAUUCUGCUGUAUAUCUC [C11G A15U A20G A28G G53A A56U] | 0.03 |
| UAACAGGGGGGCACAGCUGAAGCGUUCACGUCGCAGCCCCUGUCAGAUCCGGGUGAAUCUGCGGAUUAUGCUGUAUAUCCC [C11G A18U U49C U51G A64G C68A U80C] | 0.02 |
| UAACAGGGGGGCUCAGCUGAGGCGUUCACGUCGCAGCCCCUGUCAGACUCUGGUGAAUCUGCGAAUUCUGCUGUACACCUC [C11G A13U A18U A21G U48C U76C U78C] | 0.03 |
| UAACAGGGGGGCACUGCAGAAGUGUUUACGUCGCAGCCCCUGUGAGAUUCUGGUGAAACUGCGAAUUCUGCUGCAUAUCUC [C11G A15U C23U C27U C44G U58A U74C] | 0.07 |
| UAACAGGGGGGCACAGCAGAAGCGUUCACGUCGCAGCCCCUGUCGGACUCUGGUGAACCUGCGAAUUCUGCUGUAUACCUC [C11G A45G U48C U58C U78C] | 0.12 |
| UAACAGGGGGGCACAGCAGAAGCGUUCACGUCGCUGCCCCUGUCAGAUUUUGGUGAAUCUGCGAAUUCUGCUGUAUAUCUC [C11G A35U C50U] | 0.09 |
| UAACAGGGGGACACAGCAGAAGCGUUCACGUCGCAGCCCCUGUCAGAUUCUGGUGAACCUGCGAAUUCUGCCGUAUACCUC [C11A U58C U72C U78C] | 0.07 |
| UAACAGGGGGGCACAGCGGAAGCGUUCACGUCGCAGCCCCUGUCUGAUUCUGGUGAAUCUGCGAAUUCUGCUGUAUAUCUC [C11G A18G A45U] | 0.08 |
| UAACAGGGGGGCACAGCGGAAGCGUUCACGUCACAGCCCCUGUCAGAUCCUGGUGAAUCUGCGAAUUCUGCCGUAUAUCUC [C11G A18G G33A U49C U72C] | 0.05 |
| UAACAGGGGGGCACGGCAGAAGCGUCCACGUCGCAGCCCCUGUCAGAUUCUGGUGAAUCUGCGAAUUCUGCUGUAUACCUC [C11G A15G U26C U78C] | 0.41 |
| UAACAGGGGGGCACUGCAGCAGCGUUCACGUCGCAGCUCCUGUCAGAUUCUGGUGGAACUGCGAAUUCUGCUGUAUAUCCC [C11G A15U A20C C38U A56G U58A U80C] | 0.04 |
| UAACAGGGGGGCACAGCAGAGGCGUUCACUUCGCAGCCCCUGUCAGAUUCUGGUGAAUCUGCGAAUUCUGCUGUAUAUCUC [C11G A21G G30U] | 0.19 |
| UAACAGGGGGGCACAGCAGGAGCGUUCACGUCGCAGCCACCGUCAGAUUCUGGUGAGUCUGCGGAUUCUGCUGUAUACCUC [C11G A20G C39A U41C A57G A64G U78C] | 0.04 |
| UAACAGGGGGGCACAGCAGGAGCGUCCACGUCGCAGCCCAUGUCAGAUUCUGGUGAAUCUGCGAAUUCUGCUGUAUAUCAC [C11G A20G U26C C40A U80A] | 0.04 |

Reference: the RNAGym collection of RNA variant scans (doi:10.1093/nar/gkz1192)
